{"source": "PubChem BioAssay (Tox21)", "note": "Values joined by “and” are separate entries in the source; they are usually repeats but may differ in a detail not shown here. Equal entries are not always repeated. The shares of active, inactive and inconclusive entries below differ from those in the screen. Potencies of inconclusive entries are doubtful fits and often do not repeat. Where a structure was tested more than once in an assay, its records may differ in their call. Active and inactive are the calls of the source. Calls follow the shape of the dose curve; as a rule, active = well fitted curve in the direction sought with a large enough effect in the repeat runs; inconclusive = weak or mixed curves; inactive = no such curve, though single readings can be large; an effect the other way counts as inactive or inconclusive. Potency is read from the fitted curve at half-maximal effect; tags tell the direction and shape of the fitted curve.", "data": [{"test_system": "not listed separately", "assay": "qHTS assay to identify small molecule antagonists of the estrogen related receptor (ERR) signaling pathway from Tox21 library - cell viability counter screen (AID 1224834); also: nearly all actives have a fitted effect of over 30% in size", "details": "ERR reporter cells viability, CellTiter-Fluor, 17.5 h; series mostly up to 92.4 µM", "procedure,_shortened": "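After 17.5 h of compound exposure at 37 C, ERR cells are incubated with CellTiter-Fluor for 30 min and fluorescence intensity serves as the viability measure.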", "values": [{"smiles": "CC1(C)CCC(C)(C)c2cc(NC(=O)c3ccc(C(=O)O)cc3)ccc21", "Potency": "inactive"}, {"smiles": "CN(C)C(=O)Nc1ccc(Oc2ccc(Cl)cc2)cc1", "Potency": "inactive"}, {"smiles": "O=C(/C=C/c1ccc(O)c(O)c1)O[C@@H](C(=O)O)[C@@H](OC(=O)/C=C/c1ccc(O)c(O)c1)C(=O)O", "Potency": "inconclusive: 68.5 µM [cytotoxic, partial curve, poor fit]"}, {"smiles": "CC(C)C1=CC2=CC[C@@H]3[C@](C)(CCC[C@@]3(C)C(=O)O)[C@H]2CC1", "Potency": "inconclusive: 77 µM [cytotoxic, single point]"}, {"smiles": "CCCC(=O)OCCc1ccccc1", "Potency": "inactive"}, {"smiles": "CCCCOC(=O)c1ccccc1", "Potency": "inconclusive: 61.1 µM [rising, partial curve, poor fit]"}, {"smiles": "CC(C)(C)c1ccc(OC2CCCCC2O)cc1", "note": "(stereo unspecified)", "Potency": "inconclusive: 68.6 µM [cytotoxic, single point]"}, {"smiles": "COc1cc(/C=C/c2ccccc2)oc(=O)c1", "Potency": "inconclusive: 71 µM [cytotoxic, partial curve, poor fit]"}]}, {"target": "Luciferin 4-monooxygenase (Photinus pyralis) (UniProt P08659)", "sequence (P08659 whole entry, looked up)": "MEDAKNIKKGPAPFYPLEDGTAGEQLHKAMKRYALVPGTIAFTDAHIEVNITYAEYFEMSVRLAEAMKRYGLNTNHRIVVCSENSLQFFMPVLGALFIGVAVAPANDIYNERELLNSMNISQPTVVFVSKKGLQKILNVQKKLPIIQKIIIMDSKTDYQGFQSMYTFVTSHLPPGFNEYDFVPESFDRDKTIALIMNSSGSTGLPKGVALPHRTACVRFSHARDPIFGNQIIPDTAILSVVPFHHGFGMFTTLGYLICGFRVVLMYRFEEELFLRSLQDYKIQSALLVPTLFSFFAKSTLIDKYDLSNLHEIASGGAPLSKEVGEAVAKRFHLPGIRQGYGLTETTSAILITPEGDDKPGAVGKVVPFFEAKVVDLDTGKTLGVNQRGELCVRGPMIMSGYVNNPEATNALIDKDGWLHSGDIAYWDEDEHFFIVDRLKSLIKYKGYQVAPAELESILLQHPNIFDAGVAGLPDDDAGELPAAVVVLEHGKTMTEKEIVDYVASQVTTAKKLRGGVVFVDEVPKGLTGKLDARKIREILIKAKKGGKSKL", "assay": "qHTS assay to identify small molecule inhibitors of firefly luciferase (AID 1224835); also: nearly all actives have a fitted effect of over 25% in size", "details": "purified P. pyralis luciferase, luminescence inhibition; series mostly up to 115 µM", "procedure,_shortened": "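Biochemical qHTS: compounds run as interplate titrations against purified firefly enzyme, with D-luciferin and ATP each at its KM concentration. Light output recorded by CCD imaging.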", "values": [{"smiles": "Cn1sccc1=O", "Potency": "inconclusive: 39.9 µM [inhibitor, partial curve] and inconclusive: 28.3 µM [inhibitor, full curve]"}, {"smiles": "CCCc1nc2c(C)cc(-c3nc4ccccc4n3C)cc2n1Cc1ccc(-c2ccccc2C(=O)O)cc1", "Potency": "active: 13.8 µM"}, {"smiles": "O=[N+]([O-])c1ccc2ncccc2c1", "Potency": "inconclusive: 63.5 µM [inhibitor, partial curve, poor fit]"}, {"smiles": "CN1CC(=O)N/C1=N/C(=O)Nc1cccc(Cl)c1", "Potency": "inconclusive: 43.6 µM [inhibitor, single point]"}, {"smiles": "CCOc1cccc(-n2cc(C(=O)N3CCN(c4cc(C(=O)O)c5ccccc5c4)CC3)nc2-c2ccc(C)cc2)c1", "Potency": "inactive"}, {"smiles": "OC1CCC(C2CCCCC2)CC1", "note": "(stereo unspecified)", "Potency": "inconclusive: 79.6 µM [inhibitor, single point]"}, {"smiles": "CCCCCCCCCCCCCCC(=O)O", "Potency": "inconclusive: 89.6 µM [inhibitor, single point]"}, {"smiles": "C[N+]1(C)CCC(=C(c2ccccc2)c2ccccc2)CC1", "Potency": "inactive"}, {"smiles": "CC(=O)c1ccc2ccc3ccccc3c2c1", "Potency": "active: 31.5 µM"}, {"smiles": "Oc1cc(Cl)cc(Cl)c1Cl", "Potency": "inconclusive: 81.7 µM [inhibitor, partial curve]"}, {"smiles": "CCOCCOC(=O)/C=C/c1ccc(OC)cc1", "Potency": "inconclusive: 27.5 µM [inhibitor, partial curve]"}, {"smiles": "CCc1ccc(C)cc1", "Potency": "inactive"}, {"smiles": "Cc1ccc(C)c(O)c1", "Potency": "inactive"}, {"smiles": "O=c1cc(O)c(Cl)c[nH]1", "Potency": "inactive"}, {"smiles": "O=C1C=CC(=O)N1c1cccc(N2C(=O)C=CC2=O)c1", "Potency": "inconclusive: 17.8 µM [inhibitor, full curve]"}, {"smiles": "CC(C)(C)c1csc(-c2cc3cc(OCc4ccccc4CC(=O)O)ccc3o2)n1", "Potency": "active: 5.03 µM"}, {"smiles": "CCCCCCCCc1ccc(S(=O)(=O)O)cc1", "Potency": "inconclusive: 88.6 µM [inhibitor, single point]"}, {"smiles": "C=C(C)C(=O)OCCN(CC)CC", "Potency": "inactive"}, {"smiles": "CCN(CC)c1ccc2c(-c3ccccc3C(=O)O)c3ccc(=[N+](CC)CC)cc-3oc2c1", "Potency": "active: 11.2 µM"}, {"smiles": "BrC(Br)C(Br)Br", "Potency": "inconclusive: 70.7 µM [inhibitor, partial curve]"}, {"smiles": "c1ccc(SSc2ccccc2)cc1", "Potency": "inconclusive: 28.5 µM [inhibitor, full curve]"}, {"smiles": "CCCc1ccc(N)cc1", "Potency": "inconclusive: 71 µM [inhibitor, partial curve, poor fit]"}, {"smiles": "CCCCOC(=O)c1ccc(O)cc1", "Potency": "active: 80.7 µM and active: 63.3 µM"}, {"smiles": "O=C(O)c1ccccc1", "Potency": "inconclusive: 93.9 µM [inhibitor, partial curve, poor fit]"}, {"smiles": "Oc1c(Cl)cc(Cl)c(Cl)c1Cl", "Potency": "inconclusive: 89.4 µM [inhibitor, partial curve, poor fit]"}, {"smiles": "CCN1CCOCC1", "Potency": "inconclusive: 87.7 µM [inhibitor, single point]"}, {"smiles": "O=C(O)C(=O)Cc1c[nH]c2ccccc12", "Potency": "inconclusive: 63.3 µM [inhibitor, partial curve]"}, {"smiles": "CO[C@H]1C=CO[C@@]2(C)Oc3c(C)c(O)c4c(O)c(c5c(c4c3C2=O)=NC2(CCN(CC(C)C)CC2)N=5)NC(=O)/C(C)=C\\C=C/[C@H](C)[C@H](O)[C@@H](C)[C@@H](O)[C@@H](C)[C@H](OC(C)=O)[C@@H]1C", "Potency": "inconclusive: 55.2 µM [inhibitor, partial curve]"}]}]}
